Results published in US20170015708A1 (BIOKINE THERAPEUTICS, published 2017).

Assays:
RANTES (human) [1] = biological target: T1, RANTES (human) (human, UniProt P13501 24-91); test: cell-based or functional assay
T1 sequence (looked up): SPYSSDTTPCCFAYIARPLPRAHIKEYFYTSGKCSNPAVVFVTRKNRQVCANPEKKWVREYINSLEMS

I-TAC (human) [2] = biological target: T2, I-TAC (human) (human, UniProt O14625 22-94); test: cell-based or functional assay
T2 sequence (looked up): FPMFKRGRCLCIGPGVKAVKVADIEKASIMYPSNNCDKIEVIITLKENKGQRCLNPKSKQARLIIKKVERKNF

IP-10 (human) [3] = biological target: T3, IP-10 (human) (human, UniProt P02778 22-98); test: cell-based or functional assay
T3 sequence (looked up): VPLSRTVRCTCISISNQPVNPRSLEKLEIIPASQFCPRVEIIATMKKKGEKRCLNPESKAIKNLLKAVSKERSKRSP

MIG (human) [4] = biological target: T4, MIG (human) (human, UniProt Q07325 23-125); test: cell-based or functional assay
T4 sequence (looked up): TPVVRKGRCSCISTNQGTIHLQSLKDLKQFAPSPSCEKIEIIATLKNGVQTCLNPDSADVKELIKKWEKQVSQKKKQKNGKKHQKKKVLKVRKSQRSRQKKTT

MCP-1 (human) [5] = biological target: T5, MCP-1 (human) (human, UniProt P13500 fragment); test: cell-based or functional assay
Eotaxin (human) [6] = biological target: T6, Eotaxin (human) (human, UniProt P51671 24-97); test: cell-based or functional assay
RANTES (human) [7] = biological target: T1, RANTES (human); test: SPR, polypeptide immobilised on carboxymethyldextran, chemokine injected
I-TAC (human) [8] = biological target: T2, I-TAC (human); test: as above
IP-10 (human) [9] = biological target: T3, IP-10 (human); test: as above
MIG (human) [10] = biological target: T4, MIG (human); test: as above
MCP-1 (human) [11] = biological target: T5, MCP-1 (human); test: as above
Eotaxin (human) [12] = biological target: T6, Eotaxin (human); test: as above
T6 sequence (P51671 24-97 limits assumed): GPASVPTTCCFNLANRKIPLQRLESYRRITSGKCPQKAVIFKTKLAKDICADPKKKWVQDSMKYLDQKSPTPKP

T5 sequence (P13500 24-99 limits assumed): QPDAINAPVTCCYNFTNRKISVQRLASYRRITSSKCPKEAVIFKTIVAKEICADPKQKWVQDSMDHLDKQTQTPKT

B1: BKT-P2-FC (Fc fusion)
chain: VPPSIPSHSIHSAKAGGGSKGF[omitted - human IgG1 Fc with changes]
notes: also called IL6 signal peptide-BKT-P2-Spacer-FC; BKT-Fc-2
Inhibition of chemokine-dependent T cell adhesion to VCAM-1 (++ = 100% inhibition) (RANTES (human) [1]): 100 % inhibition
Inhibition of chemokine-dependent T cell adhesion to VCAM-1 (++ = 100% inhibition) (I-TAC (human) [2]): 100 % inhibition
Inhibition of chemokine-dependent T cell adhesion to VCAM-1 (++ = 100% inhibition) (IP-10 (human) [3]): 100 % inhibition
Inhibition of chemokine-dependent T cell adhesion to VCAM-1 (++ = 100% inhibition) (MIG (human) [4]): 100 % inhibition
Inhibition of chemokine-dependent T cell adhesion to VCAM-1 (++ = 100% inhibition) (MCP-1 (human) [5]): 100 % inhibition
Inhibition of chemokine-dependent T cell adhesion to VCAM-1 (++ = 100% inhibition) (Eotaxin (human) [6]): 100 % inhibition
Kd (RANTES (human) [7]): 18 nM
Kd (I-TAC (human) [8]): 83 nM
Kd (IP-10 (human) [9]): 38 nM
Kd (MIG (human) [10]): 130 nM
Kd (MCP-1 (human) [11]): 6500 nM
Kd (Eotaxin (human) [12]): 27000 nM

B2: BKT-P46-FC (Fc fusion)
chain: VPPLDYPIPQTVLHHGGGSKGF[omitted - human IgG1 Fc with changes]
notes: also called IL6 signal peptide-BKT-P46-Spacer-FC; BKT-Fc-46
Inhibition of chemokine-dependent T cell adhesion to VCAM-1 (++ = 100% inhibition) (RANTES (human) [1]): 100 % inhibition
Inhibition of chemokine-dependent T cell adhesion to VCAM-1 (++ = 100% inhibition) (I-TAC (human) [2]): 100 % inhibition
Inhibition of chemokine-dependent T cell adhesion to VCAM-1 (++ = 100% inhibition) (MIG (human) [4]): 100 % inhibition
Inhibition of chemokine-dependent T cell adhesion to VCAM-1 (++ = 100% inhibition) (MCP-1 (human) [5]): 100 % inhibition
Inhibition of chemokine-dependent T cell adhesion to VCAM-1 (++ = 100% inhibition) (Eotaxin (human) [6]): 100 % inhibition
Kd (I-TAC (human) [8]): 370 nM
Kd (IP-10 (human) [9]): 6.3 nM
Kd (MIG (human) [10]): 18 nM
Kd (MCP-1 (human) [11]): 46 nM
Kd (Eotaxin (human) [12]): 5000 nM
